# Measured values as given in patent publication US9187421B2, “Etomidate analogues that do not inhibit adrenocortical steroid synthesis” (THE GENERAL HOSPITAL CORPORATION, priority 2009, dated 2015).
# System: cortisol synthesis by H295R adrenocortical cells
# Settings: read-out: half-maximal inhibitory concentration (IC50) for cortisol synthesis, forskolin-stimulated, 48 h
substance,measurement,value
(R)-1-(1-phenylethyl)-1H-pyrrole-2-carboxylate [carboetomidate],IC50,2600 ± 1500 nM
